Experimental data as given in PubChem BioAssay AID686979 (National Center for Advancing Translational Sciences (NCATS), 2013).
About 50,000 (12%) of roughly 420,000 compounds were called active. This list was built around the results that the source calls inconclusive (neither active nor inactive); the mix of calls is not that of the screen. The call rests on the fitted dose curve; in most records, active means well fitted inhibition curve with a large enough effect; inconclusive means small, poorly fitted or top-dose-only effect; inactive means flat fitted curve, though single readings scatter. No potency is given beside an inconclusive call; the fits are too rough.

Test: qHTS for Inhibitors of human tyrosyl-DNA phosphodiesterase 1 (TDP1): qHTS in cells in presence of CPT; further: nearly all actives have a fitted effect of over 55% in size
Settings: chicken DT40 Tdp1-/-;hTDP1 cells + 20 nM CPT, ATP luminescence, 48 h; activity change, negative = growth inhibition: at 46.2 µM (top of the series)
In short: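 Chicken DT40 Tdp1-/- cells complemented with human TDP1, 400 cells/well, exposed to compounds plus 20 nM camptothecin for at least 48 h at 37 C; viability read as ATP content by CellTiter-Glo luminescence.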
On the % scale 0 is the no-effect control and ±100 the full control effect; potency means the concentration at half of the fitted maximal effect; tags describe the fitted curve by direction and shape.

Structure (SMILES)	Potency	activity change, negative = growth inhibition
Cc1ccc(CN(C(=O)COc2ccccc2Cl)c2ccccn2)o1	inconclusive [inhibitor, single point]	
Cc1csc(NC(=O)c2cccc(Cn3nc(C)c(Br)c3C)c2)n1	inactive	
CC(C)(C)Nc1ncnc2sc(-c3ccccc3)cc12	active: 25.9 µM	
CCc1ccc(-n2nc3cc(C)c(N)cc3n2)cc1	inactive	
Cc1cccc(C)c1OCC(O)CNS(=O)(=O)c1ccccc1C(=O)N1CCCCC1 (stereo unspecified)	active: 18.4 µM	
O=C(CNCCC1=CCCCC1)Nc1ccc(N2CCCCCC2)cc1	active: 20.6 µM	
CCC(=O)N1c2ccc(S(=O)(=O)CCC(=O)NCc3ccccc3OC)cc2CC1C (stereo unspecified)	inconclusive [inhibitor, single point]	
Cn1cccc1/C=C1/SC(=S)N(CC(=O)O)C1=O	inactive	
COc1ccc(OC)c(CNC(=O)Nc2cn(CC(C)C)c(=O)c3ccccc23)c1	inconclusive [inhibitor, single point]	
N#CCCn1cc(C(=O)N2CCCCC2)c(-c2cccc([N+](=O)[O-])c2)n1	inactive	
C=C(CC[C@@H](O)C(C)(C)O)[C@H]1CC[C@]2(C)[C@@H]1CCC1[C@@]3(C)CCC(=O)C(C)(C)C3CC[C@]12C (stereo partly specified)	inconclusive [inhibitor, single point]	
CCn1cc(S(=O)(=O)c2cc(C)cc(C)c2)c(=O)c2cc(F)c(N3CCCCC3)cc21	inconclusive [inhibitor, single point]	
Cc1ccc(S(=O)(=O)CCC(=O)Nc2nc(-c3cccnc3)cs2)cc1	active: 14.6 µM	
COc1ccccc1C(=O)NCC[N+](C)(C)C	inactive	
Cc1ccc(C(=O)NC(=S)N2CCN(c3ccc([N+](=O)[O-])cc3)CC2)cc1	inconclusive [inhibitor, single point]	
CCOC(=O)/C(C#N)=C/C=C1\C=Cc2ccccc2N1CC	active: 20.6 µM	
O=C(Cc1cccs1)Nc1nc2c(ccc3ccccc32)s1	inconclusive [inhibitor, single point]	
COc1ccc(NC(=O)CCS(=O)(=O)c2ccc3c(c2)CCN3C(C)=O)cc1	inactive	
COc1ccc(C(=O)NCc2ccccc2OC)c(OC)c1	inconclusive [inhibitor, partial curve]	
COC(=O)c1cccc(-c2ccc(C(c3c(C)[nH][nH]c3=O)c3c(C)[nH][nH]c3=O)o2)c1	active: 7.31 µM	
O=C(c1[nH]c(C(F)(F)F)nc1-c1ccccc1)N1CCC(Cc2ccccc2)CC1	inconclusive [inhibitor, single point]	
C/C(CC(=O)Nc1cccc(F)c1)=N\NC(=O)C(=O)NC1CCCCC1	inactive	
Cc1cccnc1NC(=O)c1ccc(COc2ccccc2)o1	inactive	

Structure (SMILES)	Potency	activity change, negative = growth inhibition
CCOC(=O)C1CCCN(C(=O)CN2C(=O)c3ccccc3C2=O)C1 (stereo unspecified)	inactive	
O=C(c1cnn(C(=O)CN2CCCC2=O)c1)c1ccccc1O	inconclusive [inhibitor, single point]	
COc1ccccc1NS(=O)(=O)c1cc(NC(=O)c2ccncc2)ccc1N1CCOCC1	active: 11.6 µM	
COCCNC(=S)N1CCc2cc(OC)c(OC)cc2C1COc1ccc(C(C)C)cc1 (stereo unspecified)	inconclusive [inhibitor, single point]	
CC1=CC(C)(C)N(C(=O)CN2C(=O)c3ccccc3C2=O)c2ccccc21	inconclusive [inhibitor, single point]	
O=C(CCNc1ccc(Br)cc1)c1cccc([N+](=O)[O-])c1	active: 14.6 µM	
CCN(Cc1nc2cc(Cl)ccc2c(=O)[nH]1)C(=O)c1nn(C)c(=O)c2ccccc12	inactive	
Cc1cccc(N(CC(=O)NC(C)(C)C)C(=O)CNC(=O)c2cccs2)c1C	inactive	
CCOC(=O)c1ccc(NCc2nc3ccccc3n2C)cc1	inconclusive [inhibitor, partial curve]	
CCCCn1c(CNC(=O)C23CC4CC(CC(C4)C2)C3)nnc1SCC(=O)Nc1ccc(C)cc1	inconclusive [inhibitor, single point]	
O=C(Nc1cccc(-c2nc3ccccc3[nH]2)c1)c1ccc(C(=O)Nc2cccc(-c3nc4ccccc4[nH]3)c2)cc1	active: 18.4 µM	
O=C(O)C1CCCN1S(=O)(=O)c1ccc2c(c1)CCC2 (stereo unspecified)		inconclusive: -22.8% [inhibitor]
Nc1ccc2nc(SCC(=O)N3CCN(c4ccccc4)CC3)sc2c1	inactive	
Cc1cccc(Nc2nnc(SCC(=O)Nc3ccccc3[N+](=O)[O-])s2)c1C	inconclusive [inhibitor, single point]	
Cc1cc(NC(=O)CCC(=O)N(Cc2ccco2)C(C(=O)NC2CCCCC2)c2ccccc2)no1 (stereo unspecified)	inconclusive [inhibitor, partial curve]	
C[C@]12c3[nH]c4ccc(Cl)cc4c3CCN1C(=O)[C@@H](CC(=O)NCCC1=CCCCC1)C[C@@H]2C(=O)N1CCOCC1	active: 11.6 µM	
Cc1ccc(C)c(OCC(=O)NCC(c2ccco2)N2CCCCC2)c1 (stereo unspecified)	inconclusive [inhibitor, single point]	
COC(=O)/C=c1/s/c(=C(/C#N)C(=O)NCc2ccccc2)n(-c2ccccc2)c1=O	inactive	
O=C(Nc1ccc(S(=O)(=O)N2CCC(c3nc4ccccc4s3)CC2)cc1)c1ccccc1	inactive	
Cc1ccc(CNC(=O)Nc2cc(C(=O)NCc3cccc(F)c3)ccc2N2CCCC2)cc1	inconclusive [inhibitor, single point]	
Cc1cccc(N2CCN(C(=O)c3ccccc3NC(=O)C3=CSCCO3)CC2C)c1 (stereo unspecified)	inconclusive [inhibitor, single point]	
Cc1nn(C)c(Oc2ccccc2)c1[N+](=O)[O-]	inconclusive [inhibitor, single point]	
COc1ccccc1NC(=O)Cn1c(CN2CCCCC2)nc2ccccc2c1=O	inconclusive [inhibitor, single point]	
